The target of experiment [1] is T1, MTBP-ΔD2-V8 (293T) (human) (UniProt Q96DY7).
T1 sequence: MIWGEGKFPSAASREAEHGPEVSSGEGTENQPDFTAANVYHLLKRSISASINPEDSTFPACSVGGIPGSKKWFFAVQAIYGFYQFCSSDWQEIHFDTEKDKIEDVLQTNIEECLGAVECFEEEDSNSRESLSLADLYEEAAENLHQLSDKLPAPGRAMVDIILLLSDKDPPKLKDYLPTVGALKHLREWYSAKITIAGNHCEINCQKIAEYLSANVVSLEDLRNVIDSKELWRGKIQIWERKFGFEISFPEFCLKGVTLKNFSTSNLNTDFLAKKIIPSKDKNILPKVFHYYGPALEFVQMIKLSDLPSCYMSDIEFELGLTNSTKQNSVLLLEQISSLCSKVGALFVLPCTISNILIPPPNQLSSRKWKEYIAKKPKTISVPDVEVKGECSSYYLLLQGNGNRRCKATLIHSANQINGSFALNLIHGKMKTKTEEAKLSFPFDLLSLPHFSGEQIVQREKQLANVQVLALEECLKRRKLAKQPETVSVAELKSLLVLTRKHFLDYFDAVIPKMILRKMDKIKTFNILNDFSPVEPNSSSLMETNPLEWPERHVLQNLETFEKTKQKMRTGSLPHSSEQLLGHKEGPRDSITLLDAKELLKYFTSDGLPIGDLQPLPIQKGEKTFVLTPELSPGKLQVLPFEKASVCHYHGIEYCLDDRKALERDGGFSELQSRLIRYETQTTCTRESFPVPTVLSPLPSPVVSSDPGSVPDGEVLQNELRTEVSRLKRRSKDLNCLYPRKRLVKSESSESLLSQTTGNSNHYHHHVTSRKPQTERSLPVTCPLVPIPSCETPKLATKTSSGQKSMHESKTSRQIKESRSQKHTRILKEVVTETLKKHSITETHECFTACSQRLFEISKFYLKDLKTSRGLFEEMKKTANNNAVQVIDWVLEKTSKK
Nature of the experiment: co-IP; 293T transiently transfected, Fig 2B lanes 1–5: lanes 1–3 C-terminally Flag-GFP-tagged MTBP on anti-GFP nanobodies, the other lanes 3×Flag-tagged MTBP on anti-Flag; which lane holds which N-terminal deletion is not told; endogenous Treslin/TICRR and Cdk8 by immunoblot. (In general: A western blot detects proteins with antibodies after separation by electrophoresis.)

Amino acid sequences for entries named in this document (tags omitted).
UniProt P49336: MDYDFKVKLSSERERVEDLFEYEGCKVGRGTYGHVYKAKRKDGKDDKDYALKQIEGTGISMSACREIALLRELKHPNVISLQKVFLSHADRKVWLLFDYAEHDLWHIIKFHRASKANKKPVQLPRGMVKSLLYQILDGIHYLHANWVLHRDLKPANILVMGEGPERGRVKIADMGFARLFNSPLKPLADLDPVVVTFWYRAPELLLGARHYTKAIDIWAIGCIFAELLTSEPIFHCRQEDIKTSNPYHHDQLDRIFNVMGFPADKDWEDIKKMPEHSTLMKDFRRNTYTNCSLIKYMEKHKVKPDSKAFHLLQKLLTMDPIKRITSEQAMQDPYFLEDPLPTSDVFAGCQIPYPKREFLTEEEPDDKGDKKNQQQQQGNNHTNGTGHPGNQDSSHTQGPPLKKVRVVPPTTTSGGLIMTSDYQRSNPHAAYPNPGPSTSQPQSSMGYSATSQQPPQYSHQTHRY
UniProt Q7Z2Z1: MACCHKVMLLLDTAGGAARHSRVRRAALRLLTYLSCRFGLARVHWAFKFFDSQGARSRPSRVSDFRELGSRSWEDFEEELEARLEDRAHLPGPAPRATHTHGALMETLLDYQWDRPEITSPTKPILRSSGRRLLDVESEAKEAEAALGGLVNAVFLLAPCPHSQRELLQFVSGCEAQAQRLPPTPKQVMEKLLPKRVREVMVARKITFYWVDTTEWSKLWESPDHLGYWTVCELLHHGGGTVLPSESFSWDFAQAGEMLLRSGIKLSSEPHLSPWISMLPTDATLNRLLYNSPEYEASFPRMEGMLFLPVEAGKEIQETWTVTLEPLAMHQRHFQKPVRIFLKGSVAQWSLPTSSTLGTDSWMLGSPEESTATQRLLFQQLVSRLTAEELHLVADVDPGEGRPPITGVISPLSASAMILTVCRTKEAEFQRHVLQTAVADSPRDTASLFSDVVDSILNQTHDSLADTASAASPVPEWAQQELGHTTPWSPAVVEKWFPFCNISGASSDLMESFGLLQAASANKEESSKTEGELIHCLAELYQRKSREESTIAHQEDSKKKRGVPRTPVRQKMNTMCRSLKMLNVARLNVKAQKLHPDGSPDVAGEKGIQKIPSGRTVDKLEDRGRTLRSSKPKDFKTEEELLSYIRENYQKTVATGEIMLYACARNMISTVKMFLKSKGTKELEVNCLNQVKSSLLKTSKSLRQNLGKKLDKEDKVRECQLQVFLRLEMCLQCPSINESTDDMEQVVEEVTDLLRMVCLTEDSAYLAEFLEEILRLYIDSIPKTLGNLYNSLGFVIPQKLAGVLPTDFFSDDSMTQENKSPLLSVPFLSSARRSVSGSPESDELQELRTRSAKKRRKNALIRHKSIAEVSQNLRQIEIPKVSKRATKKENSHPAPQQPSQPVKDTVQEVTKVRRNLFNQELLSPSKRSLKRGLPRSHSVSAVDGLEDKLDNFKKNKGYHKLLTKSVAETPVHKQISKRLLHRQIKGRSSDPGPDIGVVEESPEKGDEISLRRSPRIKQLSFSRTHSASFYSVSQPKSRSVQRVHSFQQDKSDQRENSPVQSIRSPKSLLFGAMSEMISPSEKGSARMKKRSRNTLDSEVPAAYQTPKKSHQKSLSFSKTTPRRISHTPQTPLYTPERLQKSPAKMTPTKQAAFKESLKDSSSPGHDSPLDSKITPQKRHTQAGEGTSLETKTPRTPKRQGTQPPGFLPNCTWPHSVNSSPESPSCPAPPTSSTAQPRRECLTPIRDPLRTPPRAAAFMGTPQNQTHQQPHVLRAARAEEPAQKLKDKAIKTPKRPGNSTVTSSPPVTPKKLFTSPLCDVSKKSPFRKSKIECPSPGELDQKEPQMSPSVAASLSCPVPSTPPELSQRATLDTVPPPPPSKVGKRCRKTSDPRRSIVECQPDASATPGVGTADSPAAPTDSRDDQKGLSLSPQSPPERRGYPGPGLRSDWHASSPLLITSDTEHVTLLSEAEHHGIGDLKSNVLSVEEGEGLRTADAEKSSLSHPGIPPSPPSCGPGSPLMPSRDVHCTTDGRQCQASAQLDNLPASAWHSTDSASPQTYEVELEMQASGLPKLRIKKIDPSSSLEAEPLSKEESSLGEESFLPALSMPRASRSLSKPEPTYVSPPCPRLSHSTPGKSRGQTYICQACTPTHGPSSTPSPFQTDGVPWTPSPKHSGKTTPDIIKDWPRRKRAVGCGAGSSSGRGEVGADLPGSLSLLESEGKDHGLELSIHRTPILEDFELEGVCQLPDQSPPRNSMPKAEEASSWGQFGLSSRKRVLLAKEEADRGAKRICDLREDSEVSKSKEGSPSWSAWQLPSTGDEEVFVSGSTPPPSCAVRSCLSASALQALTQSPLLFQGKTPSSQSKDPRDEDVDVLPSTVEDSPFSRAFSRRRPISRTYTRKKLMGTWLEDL

Experiment [2] concerns the target T2, MTBP L314D, C-terminally 3×Flag-tagged (293T) (human) (UniProt Q96DY7).
T2 sequence: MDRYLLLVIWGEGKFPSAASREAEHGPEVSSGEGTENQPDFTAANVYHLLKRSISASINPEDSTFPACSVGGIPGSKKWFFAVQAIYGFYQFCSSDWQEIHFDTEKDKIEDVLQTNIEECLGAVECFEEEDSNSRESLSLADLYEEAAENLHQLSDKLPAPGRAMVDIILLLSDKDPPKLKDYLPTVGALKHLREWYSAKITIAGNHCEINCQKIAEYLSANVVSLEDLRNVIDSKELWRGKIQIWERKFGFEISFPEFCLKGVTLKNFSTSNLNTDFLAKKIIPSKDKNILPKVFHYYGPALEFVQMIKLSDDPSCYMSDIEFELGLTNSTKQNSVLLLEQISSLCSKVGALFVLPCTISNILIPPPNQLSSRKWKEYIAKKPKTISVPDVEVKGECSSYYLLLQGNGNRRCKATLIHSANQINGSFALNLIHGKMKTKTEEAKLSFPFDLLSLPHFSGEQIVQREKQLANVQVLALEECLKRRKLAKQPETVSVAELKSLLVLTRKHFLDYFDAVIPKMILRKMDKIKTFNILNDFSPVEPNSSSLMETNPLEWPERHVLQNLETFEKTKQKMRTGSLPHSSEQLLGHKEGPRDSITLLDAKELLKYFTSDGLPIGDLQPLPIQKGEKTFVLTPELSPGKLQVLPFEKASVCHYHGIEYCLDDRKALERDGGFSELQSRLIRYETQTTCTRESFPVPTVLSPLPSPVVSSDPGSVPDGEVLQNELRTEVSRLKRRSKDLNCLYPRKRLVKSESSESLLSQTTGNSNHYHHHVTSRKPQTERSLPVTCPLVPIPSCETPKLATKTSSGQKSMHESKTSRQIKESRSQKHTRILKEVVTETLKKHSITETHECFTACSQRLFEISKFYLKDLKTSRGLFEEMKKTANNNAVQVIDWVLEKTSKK
The experiment can be described thus: co-IP; 293T transiently transfected with C-terminally 3×Flag-tagged MTBP; anti-FLAG antibody on Protein G Dynabeads, lysis buffer 20 mM HEPES, 150 mM NaCl, 10% glycerol, 0.1% Triton X-100, 1 h at 4°C; endogenous Treslin/TICRR and Cdk8 by immunoblot.

For experiment [3], the target named is T3, MTBP-WT-3×Flag (HeLa Flip-In T-Rex stable line) (human) (UniProt Q96DY7).
T3 sequence: T2 sequence with D314L
Nature of the experiment: co-IP; Flag IP from native lysates of HeLa Flip-In T-Rex lines expressing MTBP-Flag3 (WT or mutants); endogenous Treslin/TICRR and Cdk8 by immunoblot; in S5 Fig lysates with or without lambda phosphatase, M2 anti-Flag magnetic beads.

Positions count from the first letter of the chain named. No constants are given. Whether binding was seen depends on the method and setting. In cells and extracts the contact can be indirect. Some binding calls cover weakened binding; strength is not graded here. For part of these data: Sequences can lack the tags named with a protein.

On to “Cdk8 (cyclin-dependent kinase 8), endogenous (from UniProt P49336 1-464) (enzyme)”, for which the binding result in experiment [1], in experiment [2] and in experiment [3] was “binds” each time.
Consider “Treslin/TICRR (TopBP1-interacting replication stimulating protein/TopBP1-interacting checkpoint and replication regulator), endogenous (from UniProt Q7Z2Z1 1-1910)”, for which the values for the binding result in experiment [1], in experiment [2] and in experiment [3] were “no binding”, “no binding” and “binds”, respectively.

These data come from paper PMC6377148.
